Laboratory results published in paper PMC12136788.
Some of the results follow.

B1: chr5:37310712:37310713:-_ENSG00000113569_ENST00000381843|hu_hu|FALSE|FALSE (ssRNA)
RNA: GGGAGUUCUACAGUCCGACGAUCACAAAUUGCAUCAUCAGUGCUAUAUAGAAGUGGGCAGAUAUCCUGUAAAUGUAAACUAAUGCCAUCAACAGCGGCAUUAUCUCUGAUGUAGCAGUUGAUAAGAGAAGCAAUUAAUGCCCCCAACAGAGGAUUGAGCAUCA
B2: 100481045_100481165_377_5pUTR_ENSMUSG00000014195_ENSMUST00000014339|mouse|control|control (ssRNA)
RNA: GGGAGUUCUACAGUCCGACGAUCUCCGCUUGGGGCCAGAGCGGCCUUCCAUCCCUGGAGGUCCACGGUGGUCUCCGCGCUGGGGCGGGGGCCCAGGGACGGUUCCUGUGCGUAGGGGGCGCCACUUUACCCGUGAAUAGGAGGCAACAGAGGAUUGAGCAUCA
B3: 84442072_84442192_1816_CDS_ENSMUSG00000036766_ENSMUST00000049126|mouse|control|control (ssRNA)
RNA: GGGAGUUCUACAGUCCGACGAUCUGUGAAGCCUGGGCUGCAGCUGCAGGUGAAAUGCACGCCAUCCACGUAGCAAGUGCCAUUGUUCUGGCAUGGAGAGGACAUGCAAGGGUCCACCUUCUCUUCACAAGCGGAGCCGAAGUACAACAGAGGAUUGAGCAUCA
B4: 102340991_102341111_3048_CDS_ENSMUSG00000034621_ENSMUST00000143842|mouse|control|control (ssRNA)
RNA: GGGAGUUCUACAGUCCGACGAUCCUUUCUGGAGCCUGAUCUCUGAGAAGGGCUCCUGGUGCUGCGGCUCCGGUCCCGGCUAUAGCUUCGGCUUCGCUGCCAGCUGUGGGCUGUGGUGCUGCGACUUCUCCUCUUGCUUCGACUCAACAGAGGAUUGAGCAUCA
B5: chrX:71549400:71549401:+_ENSMUSG00000019087_ENSMUST00000019231|mus_hu|mus_mus_mus_hu_False|18_58 (ssRNA)
RNA: GGGAGUUCUACAGUCCGACGAUCGCAGUAGGAAGAGGGAAGCUCUUCAGUCCAGUGCGCUGCAGGGUGGGAAAGCACAACCUAGACCACCGUCCCACCCUCAACCCCCCCACUGGCAUGUCACACAACAAUCUGGGUCAAAGACAACAGAGGAUUGAGCAUCA
B6: chr19:29217640:29217641:+_ENSMUSG00000024785_ENSMUST00000064393|mus_hu|FALSE|FALSE (ssRNA)
RNA: GGGAGUUCUACAGUCCGACGAUCCUUGGUUUCAAUUUUAAACAUAAUCUGGAAAAAGCUCUUCAAAUGCCGCAAAAAUUCUAUCGUGUAGGGAGAGAGAGGGCCUAGCAGGACUUUGGAAACAUCCUGCUGUCCAAGGGUCAUCAACAGAGGAUUGAGCAUCA
B7: chr8:117878989:117878990:-_ENSG00000164754_ENST00000297338|hu_hu|hu_hu_hu_mus_True|1_28 (ssRNA)
RNA: GGGAGUUCUACAGUCCGACGAUCCCAGAGGCCCUCGUUUACUGAGGACAAAAUGUGCGUAGAACAUUUUUCUUAUUUGCUAUGAAAUAAGAAGAAACCUGGAUCUCCCGCUGGGAGCGGGAGGGGUGGGUGGCCCGGGGGAGGCAACAGAGGAUUGAGCAUCA
B8: chr16:46990514:46990515:-_ENSG00000069345_ENST00000317089|hu_hu|FALSE|FALSE (ssRNA)
RNA: GGGAGUUCUACAGUCCGACGAUCAACCCAUUGUGUGCAAAGCCCAUUUUUUUCCAUGCAUCUAAAUGAUAGAUACAGGCUAUGAAAUUCUUUAUUCUAUUUGUAGCAGCUUAUGCAGGUGCAGCCAAACACAAAGCUUCAGGACAACAGAGGAUUGAGCAUCA
B9: chr20:32246340:32246341:-_ENSG00000125967_ENST00000246190|hu_mus|motif|central (ssRNA)
RNA: GGGAGUUCUACAGUCCGACGAUCUCUCCAGGAGGCUUCAUCCUGCCAGAACUCAUACAGGGUGAAAGCAGCAUUGUCGGGCAUCUUCUGGGCAGACACAUGCAGACAAUGGCUUUGGGCCCCUGUGAAGUUCAUGUAGCAGCACAACAGAGGAUUGAGCAUCA
B10: 88635751_88649847_573_CDS_ENSG00000107779_ENST00000372037|human|control|control (ssRNA)
RNA: GGGAGUUCUACAGUCCGACGAUCGCCAUGAAGCAUACUAUCCAGAUUCUGUCCUUGAACACGAGAAAUGAUGAACAAAUAGGCUCCCAAUAAUCUGAUGUAAAUGUAUAGCUGAGGCAUUGUUCAAUUGUAAUGUUUCCUGUGCAACAGAGGAUUGAGCAUCA
B11: chr5:134191040:134191041:+_ENSG00000181904_ENST00000394976|hu_hu|FALSE|FALSE (ssRNA)
RNA: GGGAGUUCUACAGUCCGACGAUCAAAAGCAGCAGUGCCACAGCCAUAACCAAGAUCGGCAAGACGGGAUAGAGCUUUAAUGCUACCUGGAGGUCUGCCUGGGCUGACUUUGUAUCCCGCAGCUUUAGUUGUCCCCAAAGGUCUCAACAGAGGAUUGAGCAUCA
B12: chr17:64801638:64801639:+_ENSG00000154229_ENST00000413366|hu_mus|hu_hu_hu_mus_False|38_38 (ssRNA)
RNA: GGGAGUUCUACAGUCCGACGAUCUAUAUAUAUAUAUACAUAUGUACACAUAUAUAGUAAAACCCUAGUUAAACGUGUAAAGUAGCCAUUCAUUUUUGAAAUUUUAUCUACAUUAAAAAAUUAAUAUAUCUGAUAGAGUGCCAGCAACAGAGGAUUGAGCAUCA
B13: chr2:187371472:187371473:+_ENSG00000065548_ENST00000337859|hu_mus|motif|central (ssRNA)
RNA: GGGAGUUCUACAGUCCGACGAUCACUGGCCACAGUGAUACCUGUCUCUUCUACAUCUCUUGGGACGUACAGGCUUAUAUCGGUGUCAUUUACACCCAUAGAAUCAUCAACCUCAUCACCACCUGUUCCCUGAAUGUAACGGGUCAACAGAGGAUUGAGCAUCA
B14: chr16:37881740:37881741:+_ENSMUSG00000034158_ENSMUST00000078717|mus_mus|motif|central (ssRNA)
RNA: GGGAGUUCUACAGUCCGACGAUCAGACCGAUCAACUGAAUUUUGAACUGCCAUUCACAAUAAAUUACACUCAAAGAAUCGGAACAGGGAACUGGACUCAUUCCUGCCGAAUGUGUAGACAGAAUGCAAAACCUUUCUUUCACACAACAGAGGAUUGAGCAUCA
B15: chr4:144460044:144460045:+_ENSG00000153147_ENST00000283131|hu_mus|hu_hu_hu_mus_False|28_48 (ssRNA)
RNA: GGGAGUUCUACAGUCCGACGAUCACGGUCCAUAGCCUGAAGAUCAACUUGCGGAUUCCAAUCUGAGUCAUAUAAAAUGACUACAUCAGCAGUCGCAAGAUUGAUGCCAAGACCACCAGCACGUGUGCUUAGCAUAAAUACAAACAACAGAGGAUUGAGCAUCA
B16: chr2:55462594:55462595:+_ENSG00000143947_ENST00000402285|hu_hu|FALSE|FALSE (ssRNA)
RNA: GGGAGUUCUACAGUCCGACGAUCUGCCAUAAACACCCCAGCACCACAUUCAUCAGAAGGGCACUCUCGACGAAGGCGACUAAUUUUGCCAUUCUCAUCCACCUUAUAAUAUUUCAGGACAGCCAGCUUAACCUUCUUUCUCUUCAACAGAGGAUUGAGCAUCA
B17: chr7:65705844:65705845:+_ENSG00000169902_ENST00000304842|hu_mus|hu_hu_hu_mus_False|58_58 (ssRNA)
RNA: GGGAGUUCUACAGUCCGACGAUCAAACGGAUCUUUGUUACAUAAAUAAGGUGCCGGCUCCCCAUGUUUAACAAUGAUUUCUAGUAAGAAGGCUUGCAUGGCAGAAUCUAGCACUUCAUCUGUGACACCCGCCUCAUCCAAGCGCAACAGAGGAUUGAGCAUCA
B18: chr16:13788901:13788902:+_ENSMUSG00000022682_ENSMUST00000023363|mus_mus|FALSE|FALSE (ssRNA)
RNA: GGGAGUUCUACAGUCCGACGAUCGAUGUUUAUAAGUUGCUCAAAGUCUUUUGUCAAGUACAUGACAGAGGAACGAAAUUCUAGUAGCCAGUUAAUGAUCUGGUCAUCCUUUAUAUCAGGAUCAGACAGCUGGUUCUUCAACAACAACAGAGGAUUGAGCAUCA
B19: chr5:32794366:32794367:+_ENSMUSG00000014956_ENSMUST00000015100|mus_mus|motif|central (ssRNA)
RNA: GGGAGUUCUACAGUCCGACGAUCAGAAGAGAGCCAGCUAUCCAAGGCUUGUCAAAAAGGAUUCUCAUGUUCUGUGAAUCGGAAAACAAACAAACAACAAAAACCCCAAAAAACAAAACCAAUGCAGGUGAGGGUAAUACCAGACAACAGAGGAUUGAGCAUCA
B20: chr1:23645023:23645024:-_ENSG00000125944_ENST00000302271|hu_hu|FALSE|FALSE (ssRNA)
RNA: GGGAGUUCUACAGUCCGACGAUCCUUAGCCAUGACUUCUGGAUCUGGUUCUUCCACAGGGUCAGCCCAUUCAACUGUAACUACAUUUCCCCACACUUUUACUUUUCCACUCAUCAGCCGGCGUCUGGCUUGUGCUGCUGACUUCAACAGAGGAUUGAGCAUCA
B21: chr17:7478442:7478443:+_ENSG00000161960_ENST00000293831|hu_hu|FALSE|FALSE (ssRNA)
RNA: GGGAGUUCUACAGUCCGACGAUCCGAUAUGGCAAAUGUGGCCGUUUUCCCAGUCCCAGAUUGGGCUUGAGCAAUCACAUCAUAACCCUUGAUACAAGGUAGAAUGGCUCGCUGCUGGAUGGCAGAGGGCUUCUCAAAACCAUACAACAGAGGAUUGAGCAUCA
B22: chr2:198365819:198365820:+_ENSG00000115541_ENST00000409468|hu_hu|motif|central (ssRNA)
RNA: GGGAGUUCUACAGUCCGACGAUCAGUUUCAGCAGCACUCCUUUCAACCAAUACUCGGUCAAAGAGUGGAAGAAACUUUCGGAACGCUUGUCCUGCCAUUACUCCCUCCGCCUCAGACUCGUACUCUGCUCUAGUGUAGCGCCGCAACAGAGGAUUGAGCAUCA

Each binder was assayed against T1, UNK ZnF1-3 (human, UniProt Q9C0B0 31-174) (assay: nsRBNS (natural sequence RNA bind-n-seq); RBNS binding buffer (assumed for nsRBNS): 25 mM Tris pH 7.5, 150 mM KCl, 3 mM MgCl2, 0.01% Triton X-100, 500 ug/ml BSA, 20 U/ml SUPERase-In, 4 C; UNK is unkempt and MSI1 is Musashi-1; names of the RNAs are library labels; protein concentration not given here; high values mean tight binding).
T1 sequence: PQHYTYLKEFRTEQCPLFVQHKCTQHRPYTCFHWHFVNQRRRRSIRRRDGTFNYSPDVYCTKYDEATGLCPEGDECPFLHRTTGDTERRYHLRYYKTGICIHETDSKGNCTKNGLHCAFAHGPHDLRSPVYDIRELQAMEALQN

Q: For B1, which binding signal is on record?
A: Its binding signal is 1.29 enrichment R.

Q: B2 was tested. Which binding signal did it give?
A: Its binding signal is 0.549 enrichment R.

Q: How did the binding signal turn out when B3 was run?
A: Its binding signal is 0.924 enrichment R.

Q: For B4, which binding signal is on record?
A: Its binding signal is 0.456 enrichment R.

Q: How did the binding signal turn out when B5 was run?
A: The binding signal was 1.33 enrichment R.

Q: For B6, which binding signal is on record?
A: The binding signal was 1.61 enrichment R.

Q: B7 was tested. Which binding signal did it give?
A: The binding signal was 1.82 enrichment R.

Q: With B8 as the binder, how does the binding signal read?
A: The binding signal was 1.25 enrichment R.

Q: How did the binding signal turn out when B9 was run?
A: The binding signal was 0.687 enrichment R.

Q: Which binding signal does the source give for B10 here?
A: The binding signal was 1.38 enrichment R.

Q: With B11 as the binder, how does the binding signal read?
A: The binding signal was 1.39 enrichment R.

Q: How did the binding signal turn out when B12 was run?
A: The binding signal was 1.94 enrichment R.

Q: B13 was tested. Which binding signal did it give?
A: The binding signal was 0.654 enrichment R.

Q: With B14 as the binder, how does the binding signal read?
A: Its binding signal is 1.15 enrichment R.

Q: Which binding signal does the source give for B15 here?
A: The binding signal was 0.584 enrichment R.

Q: With B16 as the binder, how does the binding signal read?
A: Its binding signal is 1.43 enrichment R.

Q: How did the binding signal turn out when B17 was run?
A: Its binding signal is 0.641 enrichment R.

Q: How did the binding signal turn out when B18 was run?
A: Its binding signal is 0.809 enrichment R.

Q: With B19 as the binder, how does the binding signal read?
A: Its binding signal is 1.33 enrichment R.

Q: How did the binding signal turn out when B20 was run?
A: The binding signal was 0.641 enrichment R.

Q: How did the binding signal turn out when B21 was run?
A: The binding signal was 0.962 enrichment R.

Q: With B22 as the binder, how does the binding signal read?
A: The binding signal was 0.868 enrichment R.
